Data as given in PubChem BioAssay AID602233 (National Center for Advancing Translational Sciences (NCATS), 2012).
In all, about 380,000 compounds went through this assay and about 170 (0.045%) were called active. The inconclusive results got no clear call from the source; some entries with a clear call stand among them for comparison. Calls come from the whole dose curve; as a rule, active = well fitted inhibition curve with a large enough effect; inconclusive = small, poorly fitted or top-dose-only effect; inactive = no such curve, though single readings can be large or run the other way. A potency beside an inconclusive call is a rough fit, not a confirmed value.

Molecular target: Phosphoglycerate kinase, glycosomal (Trypanosoma brucei brucei) (UniProt P07378)
Assay: qHTS Assay to Find Inhibitors of Phosphoglycerate Kinase; note: nearly all actives have a fitted effect of over 60% in size
Details: PGK/GAPDH coupled, Kinase-Glo luminescence, 60 min; series mostly up to 57.5 µM
Method in brief: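 Recombinant glycosomal PGK reaction used 1,3-bisphosphoglycerate generated in-well by GAPDH (100nM final) in 100mM TEA pH 7.6, 5mM MgCl2, 0.01% Tween-20. After 60 minutes at room temperature, ATP was read by Kinase-Glo Plus luminescence end-point.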
Potency is the fitted concentration of half-maximal effect; tags give direction and shape of the fitted curve.

Potency, active:
COc1ccccc1C(=O)Nc1nc2ccccc2[nH]1 7.94 µM
CC(C(=O)O)N1C(=O)/C(=C/C=C/c2ccco2)SC1=S (configuration not stated) 7.94 µM
COc1cc(O)c(C(C)=O)c(CC(=O)O)c1 15.8 µM
CC1=NN(c2cccc(C(=O)O)c2)C(=O)/C1=C\C=C\c1ccco1 3.98 µM
O=C(N/N=C/c1cn(Cc2cccc(F)c2)c2ccccc12)c1cc(O)cc(O)c1 4.47 µM

Potency, inconclusive:
COc1ccc2c([N+](=O)[O-])c(Cl)[nH]c2c1 17.8 µM [inhibitor, partial curve]
Cc1cccc(NC(=O)C2CC(=O)OC23CCCC3)c1 (configuration not stated) 28.2 µM [inhibitor, partial curve, poor fit]
O=C(c1ccco1)N(CCC(c1ccccc1)c1ccco1)Cc1ccco1 (configuration not stated) 25.1 µM [inhibitor, single point]
CC(=O)Nc1nccc(-c2cc(-c3ccccc3)no2)n1 31.6 µM [inhibitor, single point]
Cc1ccc(NC(=O)CSCc2nc3c(nnn3Cc3ccc(F)cc3)c(=O)[nH]2)c(C)c1 31.6 µM [inhibitor, partial curve, poor fit]
COc1ccc(B(O)O)c(CN2CCN(C(=O)OC(C)(C)C)CC2)c1 17.8 µM [inhibitor, partial curve]
CCc1ccccc1NC(=O)CSc1ccsc1[N+](=O)[O-] 14.1 µM [inhibitor, single point]
CCCc1nn2c(=O)cc(COC(=O)c3ccco3)nc2s1 28.2 µM [inhibitor, single point]
O=C(O)/C=C/C(=O)NNC(=O)c1cc(-c2ccccc2)n[nH]1 17.8 µM [inhibitor, partial curve, poor fit]
O=C(COC(=O)c1ccc(Cl)c(S(=O)(=O)N2CCCC2)c1)NCc1ccccc1 31.6 µM [inhibitor, partial curve, poor fit]
COC(=O)C1=C(C)Nc2ncnn2C1c1ccccn1 (configuration not stated) 39.8 µM [inhibitor, single point]
O=C(O)C1Nc2c(C(=O)N3CCOCC3)cccc2C2C=CCC12 (configuration not stated) 14.1 µM [inhibitor, partial curve, poor fit]
CN(C)c1ccc(/C=N/NC(=O)c2ccccn2)cc1 25.1 µM [inhibitor, partial curve]
N/C(=N\OC(=O)c1ccc2ccccc2c1)c1ccccn1 25.1 µM [inhibitor, partial curve]
COC1C(O)C(O)C(O)C(O)C1O (configuration not stated) 25.1 µM [inhibitor, single point]
Cc1ccc(-c2cnn(-c3ccccc3)c2N)cc1 25.1 µM [inhibitor, single point]
O=C(O)c1cc2nccc(-c3ccco3)n2n1 22.4 µM [inhibitor, single point]
O=C(CN1C(=O)/C(=C\c2ccco2)SC1=S)Nc1ccc(O)cc1C(=O)O 31.6 µM [inhibitor, partial curve]
O=C(Nc1ccccc1F)c1ccc2c(Cl)c3c(nc2c1)CCC3 20 µM [inhibitor, partial curve, poor fit]
CC(C)CC(=O)Nc1ccc(C(=O)CN2CCN(c3ccc(O)cc3)CC2)cc1 39.8 µM [inhibitor, partial curve, poor fit]
COc1ccc(C(=O)OCC(=O)Nc2ncc([N+](=O)[O-])s2)cc1OC 35.5 µM [inhibitor, partial curve, poor fit]
CCC1CCc2c(sc(NC(=O)C3CC=CCC3C(=O)O)c2C#N)C1 (configuration not stated) 22.4 µM [inhibitor, partial curve]
Cc1ccc(NC(=S)N(CCN2CCCCC2)Cc2ccco2)cc1 17.8 µM [inhibitor, partial curve, poor fit]
Cn1nnnc1SCC(=O)NCCc1ccc(Cl)cc1 5.62 µM [inhibitor, single point]
O=C(CSc1nc(-c2ccc(F)cc2)nc2c1Cc1ccccc1O2)Nc1cccc(C(=O)O)c1 2.82 µM [inhibitor, full curve, poor fit]

Potency, inactive:
COc1ccc(C(=O)COC(=O)c2cnc(C)cn2)c(OC)c1
COCCn1c(SCC(=O)Nc2ccc(Cl)c(S(=O)(=O)N(C)C)c2)nc2ccccc21
O=C1C(Cl)=C(N2CCN(c3ccccc3[N+](=O)[O-])CC2)C(=O)c2ccccc21
Cc1ccc(S(=O)(=O)N2CCN(c3ccc4nnc(-c5ccccc5)n4n3)CC2)cc1
CCOC(=O)c1c(N2C(=O)Nc3ccccc3N2O)n[nH]c1-c1cccc(Cl)c1
CCOc1ccc(NC(=O)CN2CCSc3ccc(S(=O)(=O)N4CCCC4)cc32)cc1
CCN(CC)S(=O)(=O)c1ccc(C(=O)NC(=S)N2CCN(c3ccccc3O)CC2)cc1
Cc1nn(-c2ccc(Cl)cc2)c(=O)c2ccccc12
Cc1ccc(-c2nnc(SCC(=O)NC3CCCC3)nc2-c2ccc(C)cc2)cc1
Cc1ccc(C(=O)N/C(=C\c2ccc(-c3ccccc3[N+](=O)[O-])o2)C(=O)NCCCN(C)C)cc1
Cc1ccc(SCC(=O)Nc2ccc(C(=O)Nc3ccc(O)cc3)cc2)cc1
O=C1C2CCCCN2C(=O)N1CCCCN1CCN(c2ccccc2Oc2ccccc2)CC1 (configuration not stated)
CC(=O)c1nn(-c2ccc(Cl)cc2)c(=O)[nH]c1=O
CCc1ccccc1-n1c(-c2ccncc2)n[nH]c1=S
Cc1ccc(CN2c3ccccc3S(=O)(=O)c3ccccc32)cc1
CCOC(=O)N1CCN(Cc2nc3c(c(=O)n(C)c(=O)n3C)n2Cc2cccc(C)c2)CC1
CCOC(=O)CCN(c1ccccc1)S(=O)(=O)c1cc(-c2cc(C)no2)ccc1C
